# According to paper PMC11414387:
# The chains behind the UniProt entries cited, without tags or fusion partners. Where a name states a change or a piece, a line headed by the entry shows the natural chain unless it says otherwise. A line that says so, or that is headed by a name, gives the form on record, which may keep a tag or linker.
# UniProt P35222: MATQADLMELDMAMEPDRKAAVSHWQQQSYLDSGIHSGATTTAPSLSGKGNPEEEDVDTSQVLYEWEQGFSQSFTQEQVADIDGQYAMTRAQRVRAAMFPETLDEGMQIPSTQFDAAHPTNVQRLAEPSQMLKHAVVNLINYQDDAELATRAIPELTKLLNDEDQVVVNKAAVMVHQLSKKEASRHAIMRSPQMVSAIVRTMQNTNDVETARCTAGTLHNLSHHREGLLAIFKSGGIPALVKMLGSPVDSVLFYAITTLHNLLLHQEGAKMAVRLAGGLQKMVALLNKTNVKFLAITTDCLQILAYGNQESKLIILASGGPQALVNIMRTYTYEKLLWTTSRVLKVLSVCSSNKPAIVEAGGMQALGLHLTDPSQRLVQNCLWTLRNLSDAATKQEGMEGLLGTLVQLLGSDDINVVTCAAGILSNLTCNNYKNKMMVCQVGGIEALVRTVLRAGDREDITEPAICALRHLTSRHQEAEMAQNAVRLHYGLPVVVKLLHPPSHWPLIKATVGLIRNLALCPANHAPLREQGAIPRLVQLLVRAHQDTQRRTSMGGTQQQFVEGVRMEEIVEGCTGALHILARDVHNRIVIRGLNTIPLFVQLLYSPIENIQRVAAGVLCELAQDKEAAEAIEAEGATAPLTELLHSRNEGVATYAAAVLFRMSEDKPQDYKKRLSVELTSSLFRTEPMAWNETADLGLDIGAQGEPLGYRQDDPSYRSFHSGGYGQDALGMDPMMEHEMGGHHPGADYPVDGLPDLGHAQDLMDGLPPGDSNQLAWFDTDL
# β-catenin S33A-37A double-point mutant (P35222, form named): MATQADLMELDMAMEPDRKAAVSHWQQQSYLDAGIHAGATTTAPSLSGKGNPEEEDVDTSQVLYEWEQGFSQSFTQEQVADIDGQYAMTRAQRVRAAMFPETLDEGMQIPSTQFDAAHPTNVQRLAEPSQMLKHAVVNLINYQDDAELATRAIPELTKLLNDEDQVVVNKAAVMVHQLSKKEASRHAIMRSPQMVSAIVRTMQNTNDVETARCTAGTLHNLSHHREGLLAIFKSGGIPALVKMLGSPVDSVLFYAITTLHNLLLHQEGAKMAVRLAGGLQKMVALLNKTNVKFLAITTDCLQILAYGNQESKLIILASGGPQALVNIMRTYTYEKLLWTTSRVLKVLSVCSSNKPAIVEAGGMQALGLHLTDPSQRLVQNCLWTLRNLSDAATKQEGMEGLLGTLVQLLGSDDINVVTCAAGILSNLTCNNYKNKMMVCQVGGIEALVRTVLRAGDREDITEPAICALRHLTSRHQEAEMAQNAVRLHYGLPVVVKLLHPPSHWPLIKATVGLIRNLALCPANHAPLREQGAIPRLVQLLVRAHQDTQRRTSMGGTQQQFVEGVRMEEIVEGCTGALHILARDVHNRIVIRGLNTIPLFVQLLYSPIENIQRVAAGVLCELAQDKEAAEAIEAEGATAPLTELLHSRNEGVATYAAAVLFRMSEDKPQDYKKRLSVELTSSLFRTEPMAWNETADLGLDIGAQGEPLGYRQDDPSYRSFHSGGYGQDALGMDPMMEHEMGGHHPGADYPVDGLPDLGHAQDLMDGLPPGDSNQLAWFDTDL
# UniProt Q15208: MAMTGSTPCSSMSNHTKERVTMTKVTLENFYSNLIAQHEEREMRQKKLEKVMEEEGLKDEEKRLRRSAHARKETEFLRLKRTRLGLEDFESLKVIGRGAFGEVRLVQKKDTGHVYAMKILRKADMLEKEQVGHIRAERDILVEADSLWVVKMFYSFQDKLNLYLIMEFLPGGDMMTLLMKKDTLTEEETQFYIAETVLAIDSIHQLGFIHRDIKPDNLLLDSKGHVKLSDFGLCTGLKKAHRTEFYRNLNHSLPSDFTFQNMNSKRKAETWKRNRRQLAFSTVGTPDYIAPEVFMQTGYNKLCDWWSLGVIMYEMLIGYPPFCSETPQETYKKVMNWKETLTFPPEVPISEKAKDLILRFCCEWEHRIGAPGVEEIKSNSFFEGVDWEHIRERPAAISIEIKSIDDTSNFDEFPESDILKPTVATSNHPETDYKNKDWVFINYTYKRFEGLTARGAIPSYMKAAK
# No constants are given. Whether binding was seen depends on the method and setting. Binding seen in cells or lysates may run through a third protein. Some results given as binding are weak or reduced against the parent protein; the word gives no strength. For some of these results: Where a sequence is shown, tags or fusion partners need not be part of it.
# Legend:
# Flag-FBXO11 = biological target: T1, Flag-FBXO11 (UniProt Q86XK2); test: co-IP; IP with exogenous (transfected, tagged) proteins; lysate with antibody overnight at 4°C, protein A/G magnetic beads, Western blot
# T1 sequence: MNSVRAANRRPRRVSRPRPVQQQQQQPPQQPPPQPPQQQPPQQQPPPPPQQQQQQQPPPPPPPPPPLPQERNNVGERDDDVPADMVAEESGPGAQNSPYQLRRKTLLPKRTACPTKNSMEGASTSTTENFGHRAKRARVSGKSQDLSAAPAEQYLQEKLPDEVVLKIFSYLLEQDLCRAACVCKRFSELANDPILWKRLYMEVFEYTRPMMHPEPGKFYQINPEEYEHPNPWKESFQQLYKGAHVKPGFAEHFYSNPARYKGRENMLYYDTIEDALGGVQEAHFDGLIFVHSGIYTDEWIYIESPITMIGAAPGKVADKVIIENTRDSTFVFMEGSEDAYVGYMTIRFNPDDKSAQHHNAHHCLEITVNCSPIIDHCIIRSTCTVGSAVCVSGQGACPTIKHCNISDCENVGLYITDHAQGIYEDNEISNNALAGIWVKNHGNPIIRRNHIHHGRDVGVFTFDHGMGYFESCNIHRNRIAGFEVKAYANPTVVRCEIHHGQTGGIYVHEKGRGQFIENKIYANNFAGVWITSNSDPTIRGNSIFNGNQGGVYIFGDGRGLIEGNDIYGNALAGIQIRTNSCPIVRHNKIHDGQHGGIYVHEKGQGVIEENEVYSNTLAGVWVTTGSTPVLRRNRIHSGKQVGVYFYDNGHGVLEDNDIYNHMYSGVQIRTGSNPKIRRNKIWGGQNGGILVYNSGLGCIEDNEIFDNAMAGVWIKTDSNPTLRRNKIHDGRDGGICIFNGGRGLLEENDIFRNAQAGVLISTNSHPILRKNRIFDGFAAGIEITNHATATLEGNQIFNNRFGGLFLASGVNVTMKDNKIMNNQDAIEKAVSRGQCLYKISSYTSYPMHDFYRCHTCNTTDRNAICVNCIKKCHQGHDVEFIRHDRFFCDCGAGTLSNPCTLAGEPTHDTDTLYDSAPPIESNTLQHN
# [1] = biological target: β-catenin (endogenous) (human (endogenous in the human cell lines of the paper; line not named for this experiment)) (UniProt P35222); test: co-IP; IP with endogenous proteins, cells not treated with MG132; lysate with antibody overnight at 4°C, protein A/G magnetic beads, Western blot
# [2] = biological target: T2, FBXO11 (endogenous) (human (endogenous in the human cell lines of the paper; line not named for this experiment)) (UniProt Q86XK2); test: co-IP; IP with endogenous proteins; lysate with antibody overnight at 4°C, protein A/G magnetic beads, Western blot; for NDR1 with β-catenin cells treated with MG132
# T2 sequence: T1 sequence
binding (Flag-FBXO11),binding [2],Substance,binding [1]
no binding,,β-catenin S33A-37A double-point mutant (from UniProt P35222 1-781),
binds,,Myc-NDR1 (from UniProt Q15208 1-465) (enzyme),
no binding,,β-catenin S33A (from UniProt P35222 1-781),
no binding,,β-catenin S37A (from UniProt P35222 1-781),
,binds,NDR1 (endogenous) (from UniProt Q15208 1-465) (enzyme),no binding (condition: without MG132 treatment)
binds,,His-beta-catenin (from UniProt P35222 1-781),
